Values joined by “and” are separate entries in the source; they are usually repeats but may differ in a detail not shown here. Equal values may be shown once. In all, about 5,300 compounds were measured (“PER2::LUC luminescence relative to vehicle control”: median about 0.96, highest 2% from about 1.3 on). The list shows a part of the results.
System: mPer2Luc MEF
Experiment: PER2::LUC luminescence relative to vehicle control (fold of vehicle); higher = higher PER2::LUC reporter signal
Conditions: 10 µM
In short: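 The reported values are PER2::LUC luminescence as fold of vehicle control in mouse embryonic fibroblasts carrying the mPer2Luc reporter. Cells were seeded at ~3000 per well in 384-well plates in DMEM with 10% FBS at 37 °C and 5% CO2, and compounds were added at 10 μM 48 h later. ONE-Glo luminescence was read 24 h and 30 h after treatment.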

| Compound | PER2::LUC luminescence (time after treatment 24 h) | PER2::LUC luminescence (time after treatment 30 h) |
| --- | --- | --- |
| CC(=O)OC[C@@]1(O)C[C@@]23CC[C@@H]4c5ccoc5C=C[C@@]4(C)[C@@H]2CC[C@@H]1C3 | 1.02 | 0.958 |
| CCCCC1(COC(=O)CCC(=O)O)C(=O)N(c2ccccc2)N(c2ccccc2)C1=O | 0.826 | 1.02 |
| COc1cc(NC(C)CCCN)c2ncccc2c1 (centres undefined) | 0.857 and 0.712 | 0.94 and 0.92 |
| CCCCNc1c(C(=O)OCC)c(C)nc2c1cnn2CC | 0.905 | 1.02 |
| CC(=O)CC/C=C(\C)CC/C=C(\C)CC/C=C(\C)CCC=C(C)C | 1.1 | 0.997 |
| OC[C@H]1O[C@@H](n2cnc3c(Nc4ccccc4)ncnc32)[C@H](O)[C@@H]1O | 1.41 | 1.13 |
| COc1ccc(-c2ccc3c(N4CCOCC4)nc(N4C[C@@H](C)O[C@@H](C)C4)nc3n2)cc1CO | 0.334 | 0.522 |
| Nc1ccc(CCNc2ncnc3c2ncn3C2OC(CO)C(O)C2O)cc1 (centres undefined) | 0.951 | 0.857 |
| COC1(C)CCC2OC2(C)CCC2C1CC2(C)C (centres undefined) | 1.09 | 1.12 |
| CC(=O)NCCc1ccc(O)c(-c2c(O)c(O)c3c(c2O)C(=O)c2c(cc(O)c(C(=O)O)c2C(=O)O)C3=O)c1 | 0.904 | 0.903 |
| OC(CN1CCN(c2cccc(Cl)c2)CC1)C(c1ccccc1)c1ccccc1 (centres undefined) | 0.994 and 0.787 | 0.901 and 0.845 |
| CN(C)[C@@H]1C(O)=C(C(N)=O)C(=O)[C@@]2(O)C(O)=C3C(=O)c4c(O)cccc4[C@@](C)(O)[C@H]3[C@H](O)[C@@H]12 | 0.981 | 0.969 |
| COc1cc(OC)c(/C=C/S(=O)(=O)Cc2ccc(OC)c(NCC(=O)O)c2)c(OC)c1 | 0.404 | 0.454 |
| CSc1ccc2c(c1)N(CCC1CCCCN1C)c1ccccc1S2 (centres undefined) | 0.715 | 0.673 |
| CC(C)(Sc1ccc(CCN(CCCCC2CCCCC2)C(=O)NC2CCCCC2)cc1)C(=O)O | 0.924 | 0.717 |
| NC1C=CC=C(C(=O)O)C1 (centres undefined) | 1.03 | 1.11 |
| COc1cc(O)c2c(=O)c(O)c(-c3ccccc3)oc2c1 | 0.99 | 1.06 |
| Cl.N=C(N)NCCC[C@H](N)C(=O)O | 0.889 | 0.877 |
| CC/C(=C(/CC)c1ccc(O)cc1)c1ccc(O)cc1 | 1.01 | 0.953 |
| CC1=C(/C=C/C(C)=C/C=C/C(C)=C\C(=O)O)C(C)(C)CCC1 | 1.75 and 1.62 and 1.8 | 1.89 and 1.79 and 1.52 |
| Nc1nc(OCc2ccccc2)c2nc[nH]c2n1 | 1.06 | 0.951 |

| Compound | PER2::LUC luminescence (time after treatment 24 h) | PER2::LUC luminescence (time after treatment 30 h) |
| --- | --- | --- |
| COc1ccc(-c2cc(=O)c3c(OC(C)=O)cc(OC(C)=O)cc3o2)cc1 | 1.25 | 1.3 |
| Cc1cc(-c2ccccc2)nnc1NCCN1CCOCC1 | 0.994 and 0.982 | 1.01 and 0.929 |
| NC(N)=Nc1nc(CSCC/C(N)=N/S(N)(=O)=O)cs1 | 1.03 | 1.04 |
| Cc1cc(C=C2SC(=O)N(c3ccccc3)C2=O)c(C)n1-c1cccnc1 | 0.124 | 0.131 |
| C=CCO/N=C1\c2ccccc2-c2nc(C#N)c(C#N)nc21 | 0.778 | 0.699 |
| CCN1CCN(Cc2ccc(-c3cc4c(N[C@H](C)c5ccccc5)ncnc4[nH]3)cc2)CC1 | 0.438 | 0.373 |
| CCOC(=O)c1c(CSc2ccccc2)n(C)c2cc(Br)c(O)c(CN(C)C)c12 | 0.867 | 0.79 |
| CON | 1.02 | 0.914 |
| COc1cc(N2CCC(N3CCN(C)CC3)CC2)ccc1Nc1ncnc(Nc2ccccc2S(=O)(=O)C(C)C)n1 | 0.431 | 0.437 |
| CCN(CCO)CCCC(C)Nc1ccnc2cc(Cl)ccc12 (centres undefined) | 0.753 | 0.699 |
| Cc1nc(Nc2ncc(C(=O)Nc3c(C)cccc3Cl)s2)cc(N2CCN(CCO)CC2)n1 | 0.152 and 0.068 | 0.201 and 0.083 |
| CC(/C=C/C(=O)NO)=C\[C@@H](C)C(=O)c1ccc(N(C)C)cc1 | 0.507 | 0.351 |
| O=C(NC1CCN(Cc2ccccc2)CC1)c1ccc(I)cc1 | 0.949 | 0.984 |
| CC(C)c1ccc2c(c1)c(SC(C)(C)C)c(CC(C)(C)C(=O)O)n2Cc1ccc(Cl)cc1 | 1.15 and 0.968 | 0.932 and 0.989 |
| O=C1C=CC(=O)C2=C1C1c3ccccc3C2c2ccccc21 | 1.1 | 1.11 |
| Cc1ccccc1-n1c([C@H](C)Nc2nc(N)nc3nc[nH]c23)nc2cccc(C)c2c1=O | 0.801 | 0.66 |
| C[C@@H](O)[C@H]1C(=O)N2C(C(=O)[O-])=C(SC3Cn4cnc[n+]4C3)[C@H](C)[C@H]12 (some centres undefined) | 1.09 | 1.08 |
| C[C@@H]1CCNC(=O)c2cc3ccc(C(=O)Nc4nc5ccccc5n4CCCN(C)C)cc3n21 | 0.548 | 0.586 |
| O=c1ccn([C@@H]2O[C@H](COP(=O)(O)OP(=O)(O)OP(=O)(O)O)[C@@H](O)[C@H]2O)c(=O)[nH]1 | 1.08 | 1.06 |
| COc1cc(O)c2c(=O)cc(-c3ccc(O)cc3)oc2c1 | 1.21 | 1.32 |
| CC(C(=O)O)c1ccc2c(c1)CC(=O)c1ccccc1S2 (centres undefined) | 1.05 | 1.08 |

| Compound | PER2::LUC luminescence (time after treatment 24 h) | PER2::LUC luminescence (time after treatment 30 h) |
| --- | --- | --- |
| COc1ccc(CC2c3cc(OC)c(OC)cc3CC[N+]2(C)CCC(=O)OCCCCCOC(=O)CC[N+]2(C)CCc3cc(OC)c(OC)cc3C2Cc2ccc(OC)c(OC)c2)cc1OC (centres undefined) | 0.845 | 0.818 |
| CC(=O)[C@H]1CC[C@H]2[C@@H]3CC=C4C[C@@H](O)CC[C@]4(C)[C@H]3CC[C@]12C | 0.912 | 0.896 |
| NS(=O)(=O)c1ccc(-c2c(-c3ccccc3)noc2C(F)F)cc1 | 1.04 | 1 |
| O=c1c(-c2cc(O)c(O)c(O)c2)coc2cc(O)c(O)c(O)c12 | 0.977 | 0.832 |
| Cc1ccc2c(=O)c3cccc(CC(=O)O)c3oc2c1C | 0.965 | 1.06 |
| CC[C@@H](C(=O)[C@@H](C)[C@@H](O)[C@H](C)CCc1ccc(C)c(O)c1C(=O)O)[C@H]1O[C@](CC)([C@H]2CC[C@](O)(CC)[C@H](C)O2)C[C@@H]1C | 0.343 | 0.294 |
| C=C1/C(=C\C=C2/CCC[C@]3(C)[C@@H]([C@H](C)/C=C/[C@H](C)C(C)C)CC[C@@H]23)C[C@@H](O)C[C@@H]1O | 1.04 and 1.06 | 1.06 and 0.986 |
| N[C@@]1(C(=O)O)CS(=O)(=O)[C@H]2[C@H](C(=O)O)[C@H]21 | 1.03 | 1.1 |
| CCOC(=O)C1=C(COCCN)NC(C)=C(C(=O)OC)[C@@H]1c1ccccc1Cl | 0.445 | 0.46 |
| C[C@H]1O[C@@H](Oc2c(-c3cc(O)c(O)c(O)c3)oc3cc(O)cc(O)c3c2=O)[C@@H](O)[C@@H](O)[C@@H]1O | 0.947 | 0.952 |
| CC(COc1ccccc1)NC(C)C(O)c1ccc(O)cc1 (centres undefined) | 0.789 | 0.861 |
| Cc1cc(=O)oc2c(O)c(O)ccc12 | 0.968 | 0.756 |
| CC1(C)Oc2ncnc(N)c2N=C1c1ccc([C@H]2CC[C@H](CC(=O)O)CC2)cc1 | 1.09 | 1.11 |
| CC12CCCC(O)(C1)C1CC(C)(C)C1CC2 (centres undefined) | 1.01 | 0.927 |
| CCCCN1CCCCC1C(=O)Nc1c(C)cccc1C (centres undefined) | 0.526 | 0.81 |
| CO/N=C1\C[C@]2(C[C@@H]3C[C@@H](C/C=C(\C)C[C@@H](C)/C=C/C=C4\CO[C@@H]5[C@H](O)C(C)=C[C@@H](C(=O)O3)[C@]45O)O2)O[C@H](/C(C)=C/C(C)C)[C@H]1C | 1.08 | 1.12 |
| CCOC(=O)NNc1nncc2ccccc12 | 0.972 | 0.87 |
| Cc1oc2nc3c(c(NC(=O)CN4CCCC4=O)c2c1C)CCCC3 | 1.03 | 0.893 |
| CCOC(=O)c1[nH]c2cc(Cl)ccc2c1C(C(=O)NC(C)(C)C)N(C=O)Cc1ccc(Cl)cc1 (centres undefined) | 0.81 | 0.683 |
| CC1(C)[C@@H](O)CC[C@]2(C)[C@H]3C(=O)C=C4[C@H]5C[C@@](C)(C(=O)O)CC[C@]5(C)CC[C@@]4(C)[C@]3(C)CC[C@@H]12 | 0.97 | 0.899 |
| CC(=O)c1c(O)cc(O)cc1O | 1.05 | 1.03 |

| Compound | PER2::LUC luminescence (time after treatment 24 h) | PER2::LUC luminescence (time after treatment 30 h) |
| --- | --- | --- |
| CC(=O)O[C@@H]1CC2C(C)(CC[C@H](O)C2(C)C)C2CC[C@]3(C)C(=CC(=O)O[C@H]3c3ccoc3)C21C (some centres undefined) | 0.798 | 0.858 |
| CC(=O)N[C@@H](C=O)[C@@H](O)[C@H](O)[C@H](O)CO | 0.987 | 0.909 |
| COC1CCN(C(=O)c2cc(Cc3n[nH]c(=O)c4ccccc34)ccc2F)CC1 | 1.1 | 0.955 |
| CO[C@H]1C[C@H](O[C@H]2[C@H](C)[C@@H](O[C@@H]3O[C@H](C)C[C@H](N(C)C)[C@H]3O)[C@@H](C)C[C@@]3(CO3)C(=O)[C@H](C)[C@@H](O)[C@@H](C)[C@@H](C)OC(=O)[C@@H]2C)O[C@@H](C)[C@@H]1O | 0.431 | 0.899 |
| O=C(O)[C@H]1O[C@@H](Oc2cc3oc(-c4ccccc4)cc(=O)c3c(O)c2O)[C@H](O)[C@@H](O)[C@@H]1O | 1.22 | 1.34 |
| CCN1CCC(n2cc(CNc3cc(Cl)c4ncc(C#N)c(Nc5ccc(F)c(Cl)c5)c4c3)nn2)CC1 | 0.711 | 0.73 |
| Nc1ccc(S(=O)(=O)Nc2ccccn2)cc1 | 0.888 | 0.767 |
| N[C@@H](Cc1ccc(O)c(I)c1)C(=O)O | 0.947 | 0.907 |
| O=C(O)[C@H](O)[C@@](O)(Cc1ccc(O)cc1)C(=O)O | 0.947 | 0.901 |
| COc1ccnc(C[S+]([O-])c2nc3cc(OC(F)F)ccc3[nH]2)c1OC (centres undefined) | 0.944 and 1.32 | 1.01 and 0.991 |
| Cc1[nH]c2ccccc2c1CCNCc1ccc(/C=C/C(=O)NO)cc1 | 0.381 | 0.253 |
| O=C(NCCO)c1ccc2c(c1)nc(Nc1cccc(Cl)c1)c1ccncc12 | 1.03 | 0.995 |
| O=c1[nH]c(=O)c2ccccc2o1 | 0.411 | 0.755 |
| Nc1ccn([C@@H]2O[C@H](CO)[C@@H](O)[C@@H]2O)c(=O)n1 | 0.909 and 0.992 and 0.831 | 0.965 and 0.831 and 0.963 |
| Nc1ncnc2c1ncn2C1CCCO1 (centres undefined) | 1.15 | 1.25 |
| O=c1ccc2ccccc2o1 | 0.901 | 0.778 |
| CC1(C)C=Cc2cc3ccc(=O)oc3cc2O1 | 1.26 | 1.48 |
| NCCOB(c1ccccc1)c1ccccc1 | 0.966 | 0.931 |
| CCOc1ccc(C[C@H]2NC(=O)CCSSC[C@@H](C(=O)N3CCC[C@H]3C(=O)N[C@@H](CCCN)C(=O)NCC(N)=O)NC(=O)[C@H](CC(N)=O)NC(=O)[C@H]([C@@H](C)O)NC(=O)[C@H]([C@@H](C)CC)NC2=O)cc1 | 0.966 | 0.883 |

Reference: the supplement of paper PMC9334596
